Reference: the supplement of paper PMC4604168 (melanoma cell lines)
Some of the results follow. Most values come without repeats; read them as rough.

Experiments:
Assay in all cases: cell count relative to DMSO control; melanoma cells; higher = more viable cells
Details in all cases: library dose: low library concentration; 72 h
COLO792 = test system: COLO792
COLO800 = test system: COLO800
COLO829 = test system: COLO829
G361 = test system: G361
IPC-298 = test system: IPC-298
IST-MEL1 = test system: IST-MEL1
LB2518-MEL = test system: LB2518-MEL
LOXIMVI = test system: LOXIMVI
MEL-HO = test system: MEL-HO
MZ2-MEL = test system: MZ2-MEL
MeWo = test system: MeWo
RPMI7951 = test system: RPMI7951
RVH-421 = test system: RVH-421
SkMel28 = test system: SkMel28
SkMel2 = test system: SkMel2
SkMel30 = test system: SkMel30
SkMel5 = test system: SkMel5
UACC257 = test system: UACC257
UACC62 = test system: UACC62
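Note: cell number obtained by counting DAPI-stained nuclei in high-throughput microscope images with image analysis software, screen run in 1,536-well plates.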

Row | SMILES | cell count (COLO792) [%] | cell count (COLO800) [%] | cell count (COLO829) [%] | cell count (G361) [%] | cell count (IPC-298) [%] | cell count (IST-MEL1) [%] | cell count (LB2518-MEL) [%] | cell count (LOXIMVI) [%] | cell count (MEL-HO) [%] | cell count (MZ2-MEL) [%] | cell count (MeWo) [%] | cell count (RPMI7951) [%] | cell count (RVH-421) [%] | cell count (SkMel28) [%] | cell count (SkMel2) [%] | cell count (SkMel30) [%] | cell count (SkMel5) [%] | cell count (UACC257) [%] | cell count (UACC62) [%]
1 | O=C(/C=C/c1cccnc1)NCCCCC1CCN(C(=O)c2ccccc2)CC1 + COc1cc(N2CCC(N3CCN(C)CC3)CC2)ccc1Nc1ncc(Cl)c(Nc2ccccc2S(=O)(=O)C(C)C)n1 [NVP-TAE684] (first compound 0.01 µM, partner dose 0.08 µM) | 48 | 24.2 | 76.1 | 7.08 | 42.3 | 69.9 | 88.3 | 96.2 | 60.9 | 46.9 | 94.7 | 97.7 | 43.3 | 88.5 | 39.7 | 88.7 | 87.6 | 76 | 96.2
2 | Cc1ccc(Nc2nccc(N(C)c3ccc4c(C)n(C)nc4c3)n2)cc1S(N)(=O)=O [Pazopanib] + Cc1cc([N+](=O)[O-])ccc1NS(=O)(=O)c1cc(Cl)ccc1Cl [FH535] (first compound 0.4 µM, partner dose 1 µM) | 97.2 | 107 | 99.6 | 86 | 73.6 | 86.7 | 81.3 | 153 | 96.5 | 71.6 | 91.8 | 94.3 | 83 | 76.6 | 105 | 74.7 | 80.2 | 88.9 | 89.8
3 | CC1(C)CCC(c2ccc(Cl)cc2)=C(CN2CCN(c3ccc(C(=O)NS(=O)(=O)c4ccc(N[C@H](CCN5CCOCC5)CSc5ccccc5)c(S(=O)(=O)C(F)(F)F)c4)cc3)CC2)C1 + CO[C@@H]1[C@H](N(C)C(=O)c2ccccc2)C[C@H]2O[C@]1(C)n1c3ccccc3c3c4c(c5c6ccccc6n2c5c31)C(=O)NC4 [Midostaurin] (first compound 0.4 µM, partner dose 0.08 µM) | 42 | 50.9 | 101 | 69.3 | 94.9 | 65.6 | 81.7 | 34.6 | 72.5 | 90.5 | 68.2 | 34.7 | 60.6 | 94.9 | 75.6 | 92.8 | 55.1 | 71.2 | 99.3
4 | O=C(/C=C/c1cccnc1)NCCCCC1CCN(C(=O)c2ccccc2)CC1 + COc1cc2c(Oc3ccc4[nH]c(C)cc4c3F)ncnc2cc1OCCCN1CCCC1 [cediranib] (first compound 0.01 µM, partner dose 0.4 µM) | 56.1 | 15.6 | 63.9 | 12 | 43 | 60.9 | 95.9 | 84 | 36.8 | 47.6 | 106 | 91.8 | 54.8 | 89.4 | 54.5 | 102 | 94.9 | 102 | 91.2
5 | Cc1ccc(Nc2nccc(N(C)c3ccc4c(C)n(C)nc4c3)n2)cc1S(N)(=O)=O [Pazopanib] + C=CCn1c(=O)c2cnc(Nc3ccc(N4CCN(C)CC4)cc3)nc2n1-c1cccc(C(C)(C)O)n1 [MK1775] (first compound 0.4 µM, partner dose 0.02 µM) | 91.8 | 109 | 112 | 82.2 | 75.4 | 108 | – | 95.4 | 102 | – | 102 | 92.7 | 106 | 94.2 | 97.6 | 70.9 | 104 | 85.5 | 74.3
6 | CC1(C)CCC(c2ccc(Cl)cc2)=C(CN2CCN(c3ccc(C(=O)NS(=O)(=O)c4ccc(N[C@H](CCN5CCOCC5)CSc5ccccc5)c(S(=O)(=O)C(F)(F)F)c4)cc3)CC2)C1 + COc1cc(Nc2ncc(F)c(Nc3ccc4c(n3)NC(=O)C(C)(C)O4)n2)cc(OC)c1OC [Tamatinib] (first compound 0.4 µM, partner dose 0.4 µM) | 7.31 | 24.6 | 75.2 | 68.9 | 84.7 | 81.9 | 35.8 | 49.9 | 70.6 | 76.6 | 67.7 | 54.6 | 67.8 | 73.2 | 76.9 | 60.9 | 68 | 43.7 | 72.8
7 | Cc1ccc(Nc2nccc(N(C)c3ccc4c(C)n(C)nc4c3)n2)cc1S(N)(=O)=O [Pazopanib] + CCCCCCCCCCCC1=C(O)C(=O)C=C(O)C1=O [Embelin] (first compound 0.4 µM, partner dose 1.2 µM) | 119 | 158 | 76.1 | 90.9 | 81.4 | 106 | 107 | 111 | 95.7 | 70.6 | 96.9 | 89.8 | 111 | 96.7 | 99.6 | 75.6 | 99.1 | 87.7 | 89.4
8 | Cc1ccc(Nc2nccc(N(C)c3ccc4c(C)n(C)nc4c3)n2)cc1S(N)(=O)=O [Pazopanib] + c1cc(-c2cnn3cc(-c4ccc(OCCN5CCCCC5)cc4)cnc23)ccn1 [Dorsomorphin] (first compound 0.4 µM, partner dose 0.4 µM) | 106 | 90 | 83.5 | 87.8 | 86.4 | 101 | 110 | 111 | 95 | 83.2 | 105 | 84.5 | 88.2 | 86.1 | 120 | 72.3 | 70.1 | 62.4 | 81.8
9 | CC1(C)CCC(c2ccc(Cl)cc2)=C(CN2CCN(c3ccc(C(=O)NS(=O)(=O)c4ccc(N[C@H](CCN5CCOCC5)CSc5ccccc5)c(S(=O)(=O)C(F)(F)F)c4)cc3)CC2)C1 + O=C(Nc1cccc(Cl)c1)Nc1ncc(CCNc2ncnc3ccsc23)s1 [SNS314] (first compound 0.4 µM, partner dose 0.0008 µM) | 63.3 | 59.3 | 95.7 | 85.3 | 104 | 72.5 | – | 45 | 84.8 | – | 81.2 | 61.5 | 74.2 | 100 | – | 84.9 | 68.9 | 81.1 | 91.3
10 | CC1(C)CCC(c2ccc(Cl)cc2)=C(CN2CCN(c3ccc(C(=O)NS(=O)(=O)c4ccc(N[C@H](CCN5CCOCC5)CSc5ccccc5)c(S(=O)(=O)C(F)(F)F)c4)cc3)CC2)C1 + c1cc(-c2cnn3cc(-c4ccc(OCCN5CCCCC5)cc4)cnc23)ccn1 [Dorsomorphin] (first compound 0.4 µM, partner dose 0.4 µM) | 53.9 | 64.6 | 88.4 | 71.5 | 101 | 71.7 | 83.6 | 59.3 | 87.6 | 94.1 | 56.5 | 59.9 | 89.7 | 92.6 | 92.8 | 84.4 | 55.5 | 93.1 | 103
11 | O=C(/C=C/c1cccnc1)NCCCCC1CCN(C(=O)c2ccccc2)CC1 + NCC(=O)Nc1ccc(-n2nc(C(F)(F)F)cc2-c2ccc3c(ccc4ccccc43)c2)cc1 [OSU03012] (first compound 0.01 µM, partner dose 1 µM) | 69.5 | 21.4 | 76.6 | 11.8 | 40.6 | 81.7 | – | 89.9 | 44.1 | – | 55.8 | 94.9 | 61.3 | 90.6 | – | 62.6 | 97.2 | 109 | 87.8
12 | Cc1ccc(Nc2nccc(N(C)c3ccc4c(C)n(C)nc4c3)n2)cc1S(N)(=O)=O [Pazopanib] + O=C(CCCCCCC(=O)Nc1ccccc1)NO [vorinostat] (first compound 0.4 µM, partner dose 0.08 µM) | 103 | 81.8 | 83.1 | 88.8 | 84 | 98.9 | 121 | 91.8 | 118 | 71.1 | 97.3 | 101 | 99.8 | 79.6 | 97 | 79.2 | 90.2 | 88.1 | 87.7
13 | Cc1ccc(Nc2nccc(N(C)c3ccc4c(C)n(C)nc4c3)n2)cc1S(N)(=O)=O [Pazopanib] + CN(C)S(=O)(=O)c1ccc2c(c1)/C(=C/c1cc3c([nH]1)CCCC3)C(=O)N2 [SU6656] (first compound 0.4 µM, partner dose 0.4 µM) | 98.7 | 111 | 103 | 95.8 | 77.1 | 96.5 | 85.2 | 124 | 90.6 | 93.8 | 90.5 | 80.6 | 89.8 | 78.7 | 102 | 77.5 | 100 | 84 | 104
14 | O=C(/C=C/c1cccnc1)NCCCCC1CCN(C(=O)c2ccccc2)CC1 + CN(C)S(=O)(=O)c1ccc2c(c1)/C(=C/c1cc3c([nH]1)CCCC3)C(=O)N2 [SU6656] (first compound 0.01 µM, partner dose 0.4 µM) | 57.8 | 33.4 | 76.6 | 10.6 | 47.9 | 74.6 | 90.1 | 82.7 | 42.7 | 44.2 | 88.8 | 105 | 53.7 | 80.2 | 44.1 | 107 | 86.3 | 107 | 80.3
15 | Cc1ccc(Nc2nccc(N(C)c3ccc4c(C)n(C)nc4c3)n2)cc1S(N)(=O)=O [Pazopanib] + COC(=O)c1sccc1S(=O)(=O)Nc1ccc(Nc2ccccc2)cc1OC [GSK0660] (first compound 0.4 µM, partner dose 1 µM) | 116 | 105 | 94.7 | 81.4 | 74.5 | 97.5 | 98.1 | 101 | 108 | 79.3 | 115 | 92.4 | – | 77 | 93.7 | 76.8 | 98.2 | 85.1 | 83.1
16 | Cc1ccc(Nc2nccc(N(C)c3ccc4c(C)n(C)nc4c3)n2)cc1S(N)(=O)=O [Pazopanib] + O=S(=O)(c1ccccc1)N(CC(F)(F)F)c1ccc(C(O)(C(F)(F)F)C(F)(F)F)cc1 [T0901317] (first compound 0.4 µM, partner dose 1.4 µM) | 95.6 | 109 | 93.6 | 86.4 | 80.7 | 99.2 | 111 | 92.4 | 92 | 78.1 | 109 | 68.5 | 112 | 97.2 | 95.8 | 82.7 | 100 | 91.5 | 59.2
17 | CC1(C)CCC(c2ccc(Cl)cc2)=C(CN2CCN(c3ccc(C(=O)NS(=O)(=O)c4ccc(N[C@H](CCN5CCOCC5)CSc5ccccc5)c(S(=O)(=O)C(F)(F)F)c4)cc3)CC2)C1 + N#Cc1c(O)c2c(-c3ccc(-c4ccccc4O)cc3)csc2[nH]c1=O [A769662] (first compound 0.4 µM, partner dose 2 µM) | 48.6 | 74.4 | 116 | 92.4 | 109 | 85.7 | 104 | 62.2 | 74.2 | 98.5 | 63.9 | 51.6 | 76 | 95.4 | 88 | 68.5 | 63.5 | 96.4 | 96
